Test results: PMC12040169 (PLOS Biology, 2025)
The other results are listed elsewhere or left out.

What follows are molecules tested on T1, C. trachomatis L2/434/Bu expressing GFP (CTL2-GFP). Settings: total inclusion area; 28.5 h, 10 µM; inhibitor.
T1 construct: L2/434/Bu GFP intracellular growth in HeLa cells
Design: species or system HeLa; C. trachomatis total inclusion area by high-content imaging, normalised to DMSO
Summary of the method: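 Bulk GFP and resorufin signals were read first. Wells were then fixed, stained with Hoechst and imaged to detect GFP inclusions and host nuclei. MICs followed the previously described calculation.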

SMILES	% of control remaining
O=S(=O)(c1ccccc1)c1nc(-c2ccco2)oc1NCc1cccnc1 [CBK287610]	80.5198
CCc1cc(O)n2nc(C)c(-c3cccs3)c2n1 [CBK283730]	94.5011
O=[N+]([O-])c1ccccc1CN1CCN(Cc2cccc(Oc3ccccc3)c2)CC1 [CBK264307]	100.001
O=C(CC1c2ccccc2Oc2ccccc21)Nc1ccc(Cc2ccncc2)cc1 [CBK263271]	59.4401
CC(C)c1ccc(S(=O)(=O)Nc2cc(F)c(F)c(F)c2)cc1 [CBK045028]	57.3966
O=C1CSC2(CCCCC2)N1Nc1ccccc1 [CBK020047]	104.148
O=C(Nc1ccccc1)NC1CC2CCC(C1)N2Cc1nnnn1Cc1ccco1 (stereo not drawn) [CBK085071]	101.805
C[C@]12CN(C(=O)C3CC3)C[C@H]1NC(=O)c1ccccc1C2=O [CBK281660]	104.928
COc1ccc(CC(=O)N2CCC(c3cccc(Cc4ccccc4C)n3)CC2)cc1 [CBK286232]	86.8493
NNC(=O)Nc1ccc(Cc2ccc(NC(=O)NN)cc2)cc1 [CBK262017]	110.66
COc1ccc([C@H]2CN(C(C)=O)[C@@H]3CCN(CC4CC4)C[C@H]23)cc1 [CBK285502]	83.4223
CC(Sc1ccccc1)C(=O)NCCN1CCOCC1 (stereo not drawn) [CBK269332]	104.706
Cc1noc(C)c1S(=O)(=O)NCc1cc(C)n(C)n1 [CBK062155]	82.058
CC(=O)Nc1ccc(S(=O)(=O)Nc2ccc(C(=O)N3CCOCC3)cc2)cc1 [CBK034564]	58.3487
COCC(=O)N1CC[C@H](c2nnc(-c3ccc(C)cc3)o2)C1 [CBK289410]	76.4404
CC(C)(C)OC(=O)N1CCN(c2ccnc(Cl)n2)CC1 [CBK002095]	114.454
COC(=O)NC(NC(=O)OC)C(=O)c1ccccc1 [CBK020208]	75.6289
COc1ncccc1-c1cccnc1-n1ccnc1 [CBK176872]	90.0373
CCc1c(C)nc2c(C(=O)NCCOC)cnn2c1C [CBK162143]	92.9964
CCOc1ccc(-c2cncc(N[C@@H](C)c3ccccc3)n2)cc1 [CBK065720]	101.645
Cc1c(C(=O)NC2CCCN(c3ncccn3)C2)cnn1C(C)(C)C (stereo not drawn) [CBK305652]	89.0533

SMILES	% of control remaining
Cc1c(C(=O)Nc2sc3c(c2C(=O)NCc2cccnc2)CCC3)oc2ccccc12 [CBK269491]	122.101
CN(C)CCN(C)c1cccc(/C=C/c2ccccc2)n1 [CBK036826]	125.405
CC(=O)Nc1cccc(C(=O)OCC(=O)N2CCC(C)CC2)c1 [CBK305905]	104.363
Cc1ccc(-n2c(SCC(=O)Nc3ccccc3C#N)nnc2-c2cc(Br)ccc2O)c(C)c1 [CBK268743]	58.2834
O=c1c(-c2nc3ccccc3s2)coc2c(CN3CCCCC3)c(O)ccc12 [CBK262161]	94.692
COC1C(O)C(CO)OC1n1cc(F)c(=S)[nH]c1=O (stereo not drawn) [CBK201168]	124.629
Cc1ccc2c(c1)cc(C(=O)N1CCC(C(=O)NCCc3ccc(Cl)cc3)C1)n2C (stereo not drawn) [CBK285926]	105.092
O=C(C[C@@H]1O[C@H](CNS(=O)(=O)c2ccccc2)[C@@H](O)[C@H]1O)N1CCc2ccccc21 [CBK288916]	112.285
CCOc1cc(/C=N/O)c(Br)cc1O [CBK288359]	93.3464
Cc1nnc(SCc2cc(=O)[nH]c(N3CCN(C)CC3)n2)s1 [CBK270106]	100.913
Oc1ccc(-c2cncc(-c3ccc(F)cc3)n2)cc1 [CBK123794]	103.788
c1ccc(-c2onc3cc4c(cc23)OCCO4)cc1 [CBK287869]	81.8745
CCCc1nnc2sc(C3CCC(=O)N(CC(C)C)C3)nn12 (stereo not drawn) [CBK307207]	67.6681
CC(Sc1nc2ccccc2[nH]1)C(=O)O (stereo not drawn) [CBK263063]	86.0572
O=C(Cc1ccccc1F)N1CCC(n2cnc3cccnc32)CC1 [CBK283635]	108.823
NS(=O)(=O)c1ccc(NCc2ccccc2OCc2ccccc2F)cc1 [CBK268935]	86.3071
COc1ccc(-c2ccc(OC)cc2C(=O)Nc2cccc(-n3cccn3)c2)cc1 [CBK285818]	117.418
COCC(=O)Nc1ccc([C@@H](O)[C@H]2COCC(=O)N2C)cc1 [CBK289058]	116.058
COC(=O)Nc1ncc(CN2C(=O)c3ccccc3C2=O)s1 [CBK268434]	85.4436
CC(=O)Nc1ccc(C(=O)Nc2ccc(S(N)(=O)=O)cc2)cc1 [CBK261600]	105.806
CCOC(=O)N/N=C1\CCCCC1CC (stereo not drawn) [CBK016112]	90.3281

SMILES	% of control remaining
CC(=O)N1CCC[C@H]2NC(=O)CNC(=O)C3(C/C=C/C[C@H]21)CCN(Cc1cc[nH]n1)CC3 [CBK292164]	107.235
CCn1cc(C(=O)O)c(=O)c2cnc(N3CCN(C(=S)Nc4ccc5c(c4)OCO5)CC3)nc21 [CBK267930]	92.0283
CN1CCN(C)C(COc2nc3cc(Cl)c(Cl)cc3nc2N2CCCC2)C1 (stereo not drawn) [CBK115294]	94.5856
COc1ccc(Oc2nccnc2N2CCN(CCOc3ccccc3)CC2)cc1OC [CBK083061T]	97.2551
COc1cc(NC(=O)N2CCC(C(=O)O)CC2)cc(OC)c1OC [CBK156076]	80.0431
CCCOc1ccc(-c2nn(-c3ccccc3)cc2/C=C2\SC(=S)N(CC(=O)O)C2=O)cc1 [CBK264525]	107.259
Cc1cc(C(=O)N2CCc3c(sc4ncnc(N)c34)C2)c(C)s1 [CBK304980]	46.225
COc1ccc(C(C)C)cc1-c1nccnc1N[C@@H](CO)C(C)C [CBK036711]	101.511
Cc1ccccc1Cc1cccc(C2CCN(S(=O)(=O)c3cn(C)nc3C)CC2)n1 [CBK286141]	128.766
C=CCNC(=O)c1ccc(-c2cccc(N(C)C)c2)nc1NCc1cccnc1 [CBK076566]	130.156
O=C1CC2(CCC3C(C(=O)N4CCCCC4)C32)Oc2ccccc21 (stereo not drawn) [CBK284947]	86.547
CN1CCC(OCCCn2ccnc2-c2ccccc2C(=O)O)CC1 [CBK307188]	73.8609
Nc1ncc(-c2cc(C(F)(F)F)cc(C(F)(F)F)c2)nc1Nc1ccc2[nH]ccc2c1 [CBK063651]	61.1603
COCC1(C(=O)N2CCN(c3ccccc3C#N)CC2)CCC1 [CBK304361]	36.3655
CC(=O)Nc1cccc(/C(C)=N/NC(=O)c2ccc(CN3CCOCC3)cc2)c1 [CBK262746]	102.553
COc1ccc(C2CC(=O)C(=CNCCCN3CCOCC3)C(=O)C2)cc1 (stereo not drawn) [CBK263647]	110.358
Brc1nc2c3c(nc(N4CCOCC4)c2s1)CCCC3 [CBK019604]	87.4433
O=C(C[n+]1cccc(C(=O)N/N=C/c2ccc(Br)cc2)c1)c1ccccc1 [CBK262063B]	95.5665
CC(=O)c1c(C)c2c(=O)n3c(nc2[nH]c1=O)CCC3 [CBK287872]	100.32
COc1ccccc1N1CCN(CCC(=O)Nc2ccccc2F)CC1 [CBK264313]	98.6858
S=c1[nH]nc2ccc(N3CCOCC3)nn12 [CBK008327]	95.408

SMILES	% of control remaining
CS(=O)(=O)N1CCC2(CC1)NC(=O)N(Cc1ccccc1)C2=O [CBK287656]	92.6318
Cc1c(C(=O)N(C(C)C)C2CC2)nnn1-c1ccc2ncccc2c1 [CBK305518]	57.4565
CN(C)S(=O)(=O)c1cccc(-c2cn3cccnc3n2)c1 [CBK267580]	79.3558
CC12CN3CC(C)(CN(C1)C3c1cccc([N+](=O)[O-])c1)C2=O (stereo not drawn) [CBK009030]	99.0638
OC[C@H]1O[C@@H](n2cnc3cncnc32)C[C@H]1O [CBK201243]	122.876
CC(C)(C)C1CCC(OC(=O)CCC(=O)O)CC1 (stereo not drawn) [CBK026882]	94.493
COc1ccc(-c2nn(CCC#N)cc2C(=O)N2CCCCC2)cc1 [CBK305834]	75.2776
CC(CN(C)C)C(=O)c1ccsc1 (stereo not drawn) [CBK025906]	50.6682
O=C(NC1CCc2ccccc21)N1CCN(CCc2ccccc2)CC1 (stereo not drawn) [CBK158936]	102.212
COCCNc1nc(-c2cc(OC)c(OC)c(OC)c2)cnc1N [CBK063559]	104.148
CCCn1cnc2c1CN(C(C)=O)[C@H](C(=O)OC)C2 [CBK288995]	77.4013
CCc1ccc(C2CC(=O)c3c(ccc4ccccc34)N2)cc1 (stereo not drawn) [CBK098787]	80.8532
CC(C)(O)Cc1ccccc1C(=O)NC1CCCCCC1 [CBK010502]	78.1574
O=C(Nc1ccc(Oc2ccccc2)cc1)c1cc([N+](=O)[O-])cc2cn[nH]c12 [CBK293985]	101.919
Nc1nc(N)n(-c2ccccc2)n1 [CBK026515]	53.3498
Cc1ccc(N2C(=O)CC(Sc3ncccc3C(=O)O)C2=O)cc1 (stereo not drawn) [CBK287761]	98.4587
CN(c1ncccc1CNC(=O)c1cccnc1)C1CCCCC1 [CBK306555]	32.644
CC(C)C[C@@H]1N[C@H](C(=O)NCCN(C)C)Cc2c[nH]c3cccc1c23 [CBK289417]	112.051
